# Measurements taken from PubChem BioAssay (Tox21).
# “And” between values parts separate entries of the source, which are not always exact repeats. Identical values can stand only once. The inconclusive results got no clear call from the source; some entries with a clear call stand among them for comparison. A potency beside an inconclusive call is a rough fit, not a confirmed value. A structure can be active in one record and inactive in another. The source made the active and inactive calls. Unless noted, calls follow the shape of the dose curve; as a rule, active = well fitted cell-killing curve with a large enough effect in the repeat runs; inconclusive = weak or mixed curves, or effect the other way; inactive = no such curve, though single readings can be large or run the other way.
# Experiments:
# [1] = qHTS assay to identify small molecule antagonists of the vitamin D receptor (VDR) signaling pathway - cell viability counter screen (AID 743225); conditions: VDR-bla HEK293T viability, CellTiter-Glo luminescence, 16 h; viability change, negative = cytotoxic: at 61 µM (top of the series); also: nearly all actives have a fitted effect of over 50% in size; as to viability change, negative = cytotoxic: % is scaled to controls: 0 for no effect and ±100 for the full control effect
# How it was run: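 Read-out: CellTiter-Glo luminescence measured 30 min after reagent addition at room temperature. Cells were VDR-bla HEK 293T exposed 16 h at 37C, 5% CO2, to compound with 3 nM final calcitriol agonist.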
# [2] = qHTS assay to identify small molecule agonists of the NFkB signaling pathway (AID 1159509; active = well fitted curve in the direction sought with a large enough effect in the signal ratio in the repeat runs, not every such curve was filed as active; inconclusive = weak or mixed curves, or a change in a side signal; inactive = no such curve, though single readings can be large or run the other way; the % refers to the signal ratio; as to activation: % is scaled to controls: 0 for no effect and ±100 for the full control effect); conditions: NFkB-bla ME-180 cells, beta-lactamase FRET ratio, 5 h; activation: at 61 µM (top of the series) unless noted
# How it was run: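 Agonist activity was read as beta-lactamase-driven FRET change (460 and 530 nm emission, 405 nm excitation) following 1.5 hr substrate loading at room temperature. Beforehand, ME-180 NFkB-bla reporter cells were treated with compounds for 5 hr at 37 C.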
# [3] = qHTS assay to identify small molecule agonists of the vitamin D receptor (VDR) signaling pathway - cell viability counter screen (AID 743224); also: nearly all actives have a fitted effect of over 50% in size; as to activity change, negative = cytotoxicity: % is scaled to controls: 0 for no effect and ±100 for the full control effect
# How it was run: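 Cytotoxicity counter screen: VDR-bla cells, 16 h compound exposure at 37C, 5% CO2; CellTiter-Glo luminescence, 30 min RT, same wells as bla read.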
# [4] = qHTS assay to identify small molecule agonists of the farnesoid-X-receptor (FXR) signaling pathway - cell viability counter screen (AID 743218); conditions: FXR-bla HEK293T viability, CellTiter-Glo luminescence, 16 h; viability change, negative = cytotoxic: at 62.6 µM (top of the series) unless noted; also: nearly all actives have a fitted effect of over 45% in size
# How it was run: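 Luminescence from CellTiter-Glo, read after 30 min at RT, reports viability of GeneBLAzer FXR-UAS-bla HEK 293T cells treated 16 h with compounds in the wells used for the beta-lactamase reporter.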
# [5] = target: Bile acid receptor (Homo sapiens) (UniProt Q96RI1); test: qHTS assay to identify small molecule agonists of the farnesoid-X-receptor (FXR) signaling pathway (AID 743220; active = well fitted activation curve with a large enough effect in the signal ratio in the repeat runs, not every such curve was filed as active; inconclusive = weak or mixed curves, or effect the other way; the % refers to the signal ratio); conditions: HEK293T FXR-UAS-bla, beta-lactamase FRET ratio, 16 h; activation: at 62.6 µM (top of the series) unless noted
# Sequence of UniProt Q96RI1 (Q96RI1 whole entry, looked up): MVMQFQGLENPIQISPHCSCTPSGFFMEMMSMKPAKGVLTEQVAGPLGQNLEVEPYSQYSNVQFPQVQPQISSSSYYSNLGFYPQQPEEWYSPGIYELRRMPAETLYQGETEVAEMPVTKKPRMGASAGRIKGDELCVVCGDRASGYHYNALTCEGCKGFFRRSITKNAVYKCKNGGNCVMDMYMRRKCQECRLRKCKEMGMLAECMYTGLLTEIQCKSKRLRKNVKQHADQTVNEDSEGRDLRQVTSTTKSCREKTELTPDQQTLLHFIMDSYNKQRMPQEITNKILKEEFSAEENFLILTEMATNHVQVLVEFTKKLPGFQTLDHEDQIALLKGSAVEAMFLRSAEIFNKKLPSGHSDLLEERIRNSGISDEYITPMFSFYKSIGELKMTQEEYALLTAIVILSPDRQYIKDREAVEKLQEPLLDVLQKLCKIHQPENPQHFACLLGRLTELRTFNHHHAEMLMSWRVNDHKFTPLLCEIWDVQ
# How it was run: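 FXR-UAS-bla HEK 293T cells carrying a UAS-driven beta-lactamase reporter were plated for 5 h at 37C/5% CO2, then exposed to DMSO-dissolved Tox21 10K compounds for 16 h at 37C. A LiveBLAzer B/G FRET substrate was loaded for 2 h at room temperature before fluorescence reading.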
# [6] = qHTS assay to identify small molecule antagonists of the farnesoid-X-receptor (FXR) signaling pathway - cell viability counter screen (AID 743221; active = well fitted cell-killing curve with a large enough effect in the repeat runs, not every such curve was filed as active; inconclusive = weak or mixed curves, or effect the other way; inactive = no such curve, though single readings can be large or run the other way; also: nearly all actives have a fitted effect of over 50% in size); conditions: FXR-bla HEK293T viability, CellTiter-Glo luminescence, 16 h; activity change, negative = cytotoxicity: at 62.6 µM (top of the series) unless noted
# How it was run: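 Luminescence from CellTiter-Glo measures cytotoxicity in GeneBLAzer FXR-UAS-bla HEK 293T cells. Cells were exposed to compounds with 50 uM chenodeoxycholic acid (final) for 16 h at 37 C, in wells also used for the reporter readout.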
# [7] = target: Vitamin D3 receptor (Homo sapiens) (UniProt P11473); test: qHTS assay to identify small molecule agonists of the vitamin D receptor (VDR) signaling pathway (AID 743222; calls by dose curve; as to activation: % is scaled to controls: 0 for no effect and ±100 for the full control effect); conditions: HEK293T VDR-UAS-bla, beta-lactamase FRET ratio, 16 h; activation: at 63.5 µM (top of the series) unless noted
# Sequence of UniProt P11473 (P11473 whole entry, looked up): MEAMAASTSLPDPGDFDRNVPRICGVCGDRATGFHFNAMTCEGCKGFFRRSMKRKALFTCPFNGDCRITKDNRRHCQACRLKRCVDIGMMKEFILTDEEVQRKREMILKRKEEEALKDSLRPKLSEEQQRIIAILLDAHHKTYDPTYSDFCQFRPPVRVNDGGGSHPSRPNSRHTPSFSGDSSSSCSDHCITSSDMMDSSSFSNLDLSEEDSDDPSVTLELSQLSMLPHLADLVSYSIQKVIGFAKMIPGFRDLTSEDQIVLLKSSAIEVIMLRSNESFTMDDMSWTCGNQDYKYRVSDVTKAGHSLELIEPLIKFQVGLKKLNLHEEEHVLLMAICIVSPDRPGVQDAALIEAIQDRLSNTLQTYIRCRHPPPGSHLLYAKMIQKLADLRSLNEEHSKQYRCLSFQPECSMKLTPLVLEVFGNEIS
# How it was run: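 Beta-lactamase reporter readout (LiveBLAzer B/G FRET, 2 h RT) in VDR-bla cells after 16 h compound treatment at 37C, 5% CO2; cells pre-incubated 4 h before pin transfer of DMSO solutions.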
# [8] = target: Vitamin D3 receptor (Homo sapiens) (UniProt P11473); test: qHTS assay to identify small molecule antagonists of the vitamin D receptor (VDR) signaling pathway (AID 743223; active = well fitted inhibition curve with a large enough effect in the signal ratio in the repeat runs, not every such curve was filed as active; inconclusive = weak or mixed curves, or effect the other way; inactive = no such curve, though single readings can be large or run the other way; the % refers to the signal ratio); conditions: VDR-UAS-bla HEK293T, beta-lactamase FRET ratio, 16 h; activity change, negative = inhibition: at 61 µM (top of the series) unless noted
# How it was run: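 Antagonist mode uses 1alpha,25-dihydroxyvitamin D3 at 3 nM final as stimulus. VDR-bla cells receive compounds in DMSO, incubate 16 h at 37C, then a beta-lactamase FRET substrate for 2 h at room temperature before fluorescence measurement.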
# [9] = qHTS assay to identify small molecule agonists of the NFkB signaling pathway - cell viability counter screen (AID 1159515; calls by dose curve; also: nearly all actives have a fitted effect of over 55% in size)
# How it was run: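 ME-180 NFkB-bla cells, 2,000/well; overnight attach; compound 5 hr, 37 C/5% CO2; LiveBLAzer substrate 1.5 hr RT; then CellTiter-Glo in same wells, 30 min RT, luminescence read.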
# [10] = qHTS assay to identify small molecule agonists of the endoplasmic reticulum stress response signaling pathway (AID 1159516; active = well fitted activation curve with a large enough effect in the signal ratio in the repeat runs, not every such curve was filed as active; inconclusive = weak or mixed curves, or effect the other way; the % refers to the signal ratio); conditions: ESRE-bla HeLa, ER stress beta-lactamase reporter, 5 h; activation: at 61 µM (top of the series) unless noted
# How it was run: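 HeLa ESRE-bla reporter line; cpd 5 h, 37 C/5% CO2; LiveBLAzer B/G FRET substrate 2 h RT; ex 405, em 460/530 nm.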
# Potency is read from the fitted curve at half-maximal effect; tags tell the direction and shape of the fitted curve or compound fluorescence and quenching.
compound,measurement,setting,value
Sc1ccccc1Cl,Potency,[1],inactive
same,Potency,[2],inactive
C=C(Cl)CSC(=S)N(CC)CC,Potency,[3],inactive
same,Potency,[2],inactive
CNC(=O)Oc1ccccc1C1OCCO1,Potency,[3],"inconclusive: 61.4 µM [cytotoxic, partial curve, poor fit]"
same,Potency,[2],inactive
CC(=O)[O][Sn]([c]1ccccc1)([c]1ccccc1)[c]1ccccc1,Potency,[4],active: 97.7 nM
same,Potency,[5],inconclusive: 19.5 µM [full curve]
same,Potency,[6],active: 0.138 µM
same,Potency,[7],"inconclusive: 0.0776 µM [rising, full curve]"
same,Potency,[8],"inconclusive: 0.309 µM [rising, full curve]"
same,Potency,[1],active: 219 nM
same,Potency,[9],active: 2.45 µM
same,Potency,[10],"inconclusive: 13.8 µM [falling, full curve]"
C=C(C)[C@H]1Cc2c(ccc3c2O[C@@H]2COc4cc(OC)c(OC)cc4[C@@H]2C3=O)O1,Potency,[3],"inconclusive: 44.2 nM [cytotoxic, full curve] and inconclusive: 87.1 nM [cytotoxic, full curve] and inconclusive: 1.68 µM [cytotoxic, full curve]"
same,Potency,[1],"inconclusive: 99 nM [cytotoxic, full curve] and inconclusive: 61.6 nM [cytotoxic, partial curve, poor fit]"
same,Potency,[2],"inconclusive: 62.5 µM [falling, single point] and inconclusive: 54.9 µM [falling, single point]"
CC(C)(c1ccccc1)c1ccc(O)c(C(C)(C)c2ccccc2)c1,Potency,[4],"inconclusive: 61.1 µM [cytotoxic, single point] and active: 54.9 µM"
same,Potency,[6],"inconclusive: 54.4 µM [falling, single point] and inconclusive: 61.6 µM [falling, single point]"
same,Potency,[7],"inconclusive: 38.9 µM [falling, partial curve, poor fit]"
same,activation,[7],inconclusive: 37.5%
same,Potency,[8],active: 43.6 µM
same,Potency,[1],active: 30.6 µM and active: 17.4 µM
same,Potency,[9],active: 21.7 µM and active: 21.9 µM
same,Potency,[10],"inconclusive: 48.5 µM [cytotoxic, partial curve] and inconclusive: 38.9 µM [cytotoxic, partial curve]"
O=C1C(Cl)=C(Cl)C(=O)c2ccccc21,Potency,[4],"inconclusive: 55.1 µM [cytotoxic, partial curve, poor fit] and active: 49 µM"
same,Potency,[6],inactive and active: 49 µM
same,Potency,[7],"inconclusive: 2.19 µM [fluorescent, partial curve] and inconclusive: 9.77 µM [fluorescent]"
same,Potency,[3],active: 4.38 µM and active: 9.77 µM
same,Potency,[1],active: 6.94 µM and active: 12.3 µM
same,Potency,[9],active: 21.9 µM and active: 12.3 µM
same,Potency,[10],"inconclusive: 55.1 µM [cytotoxic, partial curve] and inconclusive: 54.9 µM"
C[C@@H]1C[C@@H]([C@H](O)CC2CC(=O)NC(=O)C2)C(=O)[C@@H](C)C1,Potency,[3],"inconclusive: 0.387 µM [cytotoxic, full curve]"
same,activation,[2],inconclusive: 3.14% and inconclusive: 2.52% and inconclusive: 4.46%
NNC(=S)NN,Potency,[1],"inconclusive: 179 nM [cytotoxic, full curve, poor fit]"
same,Potency,[2],"inconclusive: 40 µM [falling, partial curve]"
Clc1ccc(C(c2ccc(Cl)cc2)C(Cl)(Cl)Cl)cc1,Potency,[4],"inconclusive: 62.1 µM [cytotoxic, single point] and inconclusive: 61.6 µM [cytotoxic, single point] and inactive"
same,activation,[5],inconclusive: 7.93% [at 81.1 µM]
same,"activity change, negative = inhibition",[8],inconclusive: 23.4% [at 78.8 µM]
same,Potency,[3],active: 55.3 µM and active: 43.6 µM
same,Potency,[1],"inconclusive: 54900 nM [cytotoxic, single point]"
same,Potency,[9],"active: 55.3 µM and inconclusive: 54.9 µM [cytotoxic, single point] and inconclusive: 26.8 µM [cytotoxic]"
same,Potency,[10],"inconclusive: 49.3 µM [cytotoxic] and inconclusive: 61.6 µM [cytotoxic] and inconclusive: 26.8 µM [cytotoxic, single point]"
CN(C)c1ccc(N=O)cc1,Potency,[4],active: 49000 nM
same,activation,[5],inconclusive: -5.53%
same,Potency,[7],inconclusive: 19.5 µM
same,activation,[7],inconclusive: 4.21% [at 81.1 µM]
same,Potency,[8],inactive and inconclusive: 19.5 µM [full curve]
same,Potency,[1],active: 19500 nM
same,Potency,[9],inconclusive: 34.8 µM [cytotoxic] and active: 43.6 µM
same,Potency,[10],inconclusive: 61.8 µM [single point]
O=C(O)c1cc(I)cc(I)c1I,Potency,[8],"inconclusive: 18.7 µM [activator, partial curve, poor fit]"
same,Potency,[1],inactive
same,Potency,[2],"inconclusive: 0.528 µM [rising, full curve, poor fit]"
FC(F)(F)c1ccc(Cl)cc1,Potency,[1],"inconclusive: 7760 nM [cytotoxic, single point]"
same,Potency,[2],inactive
OCCN(CCO)CCO,Potency,[1],inactive
same,Potency,[2],inactive
CC(=O)/C=C/c1ccccc1,Potency,[1],"inconclusive: 490 nM [cytotoxic, single point]"
same,Potency,[9],inactive
Oc1cccc2cccnc12,Potency,[4],active: 949 nM
same,Potency,[8],inconclusive: 9.77 µM
same,"activity change, negative = inhibition",[8],inconclusive: -33.1% and inconclusive: 21.1%
same,Potency,[1],"inconclusive: 464 nM [cytotoxic, single point] and active: 8.71 µM and inconclusive: 6.01 µM [cytotoxic, single point]"
same,Potency,[9],"inconclusive: 5.52 µM [cytotoxic, full curve, poor fit] and active: 977 nM"
CN(C)C(=S)S,Potency,[6],"inconclusive: 50 µM [falling, single point]"
same,activation,[7],inconclusive: 6.64%
same,Potency,[8],"inconclusive: 12.3 µM [inhibitor, single point]"
same,Potency,[3],active: 50 µM and active: 1.09 µM and active: 9.77 µM
same,Potency,[1],"inconclusive: 217 nM [cytotoxic, full curve, poor fit]"
same,Potency,[9],"inconclusive: 39.7 µM [cytotoxic, single point] and inconclusive: 10.9 µM [cytotoxic, single point] and active: 15.5 µM"
Nc1c(Cl)c(Cl)nc(C(=O)O)c1Cl,Potency,[1],"inconclusive: 505 nM [cytotoxic, single point]"
same,Potency,[9],"inconclusive: 14.2 µM [cytotoxic, partial curve, poor fit]"
same,Potency,[10],"inconclusive: 68.4 µM [rising, single point]"
O=C(O)COc1nc(Cl)c(Cl)cc1Cl,Potency,[4],"inconclusive: 501 nM [rising, full curve]"
same,Potency,[8],"inconclusive: 0.0141 µM [activator, full curve, poor fit]"
same,Potency,[3],"inconclusive: 6.31 µM [cytotoxic, full curve]"
same,Potency,[1],"inconclusive: 2000 nM [cytotoxic, single point]"
same,Potency,[9],"inconclusive: 63.1 µM [rising, partial curve, poor fit]"
c1ccc2c(c1)-c1cccc3cccc-2c13,activation,[7],inconclusive: 10.3%
same,Potency,[9],"inconclusive: 55.5 µM [cytotoxic, partial curve, poor fit]"
Clc1ccc(C(c2ccc(Cl)cc2)C(Cl)Cl)cc1,Potency,[6],"inconclusive: 61.6 µM [falling, partial curve, poor fit]"
same,activation,[7],inconclusive: -20.8%
same,"activity change, negative = inhibition",[8],inconclusive: -38.7% [at 78.8 µM]
same,Potency,[1],"inconclusive: 55.8 µM [cytotoxic, single point] and inconclusive: 61.6 µM [cytotoxic, single point]"
same,Potency,[9],"active: 49.8 µM and inconclusive: 61.6 µM [cytotoxic, single point]"
same,Potency,[10],"inconclusive: 44.4 µM [cytotoxic, partial curve] and inconclusive: 61.6 µM [single point]"
O=c1nc(O)n(Cl)c(=O)n1Cl,Potency,[1],inactive
same,Potency,[9],inactive
[O]=[Cr](=[O])([OH])[O][Cr](=[O])(=[O])[OH],Potency,[4],"inconclusive: 24.8 µM [cytotoxic, partial curve, poor fit] and active: 27.5 µM"
same,Potency,[5],"inconclusive: 5.55 µM [activator, full curve] and inconclusive: 8.69 µM [activator, full curve]"
same,Potency,[6],active: 19.7 µM and active: 24.5 µM
same,Potency,[8],inconclusive: 61.5 µM [inhibitor]
same,"activity change, negative = inhibition",[8],inconclusive: -77.9% [at 78.8 µM]
same,Potency,[3],active: 17.5 µM and active: 21.8 µM
same,Potency,[1],active: 19.7 µM and active: 21.8 µM
same,Potency,[9],"inconclusive: 6.22 µM [cytotoxic, full curve] and active: 30.8 µM"
[Cd+2].[Cl-].[Cl-],Potency,[4],active: 11.1 µM and active: 6.16 µM
same,Potency,[3],active: 1.75 µM and active: 1.23 µM
same,Potency,[1],active: 8.78 µM and active: 2.45 µM
same,Potency,[9],"inconclusive: 62.2 µM [cytotoxic] and inconclusive: 54.9 µM [cytotoxic, single point]"
same,Potency,[10],"inconclusive: 27.8 nM [falling, full curve, poor fit] and inconclusive: 49 nM [falling, full curve, poor fit]"
